Source: PubChem BioAssay AID485294 (National Center for Advancing Translational Sciences (NCATS), 2010)
The campaign covered roughly 370,000 compounds. About 150 (0.041%) were called active. Inconclusive results, whose numbers are uncertain, are shown with a selection of clear calls. The call rests on the fitted dose curve; in most records, active means well fitted inhibition curve with a large enough effect; inconclusive means small, poorly fitted or top-dose-only effect; inactive means flat fitted curve, though single readings scatter. No potency is given beside an inconclusive call; the fits are too rough.
Further: nearly all actives have a fitted effect of over 25% in size.
Potency means the concentration at half of the fitted maximal effect; tags describe the fitted curve by direction and shape.

These compounds were tested against Beta-lactamase (Escherichia coli (strain K12)) (UniProt P00811) (assay: qHTS Inhibitors of AmpC Beta-Lactamase (assay with detergent)). Settings: AmpC hydrolysis of nitrocefin, absorbance 480 nm, 0.01% Triton; series mostly up to 114 µM.
Chain of UniProt P00811 (P00811 whole entry, looked up): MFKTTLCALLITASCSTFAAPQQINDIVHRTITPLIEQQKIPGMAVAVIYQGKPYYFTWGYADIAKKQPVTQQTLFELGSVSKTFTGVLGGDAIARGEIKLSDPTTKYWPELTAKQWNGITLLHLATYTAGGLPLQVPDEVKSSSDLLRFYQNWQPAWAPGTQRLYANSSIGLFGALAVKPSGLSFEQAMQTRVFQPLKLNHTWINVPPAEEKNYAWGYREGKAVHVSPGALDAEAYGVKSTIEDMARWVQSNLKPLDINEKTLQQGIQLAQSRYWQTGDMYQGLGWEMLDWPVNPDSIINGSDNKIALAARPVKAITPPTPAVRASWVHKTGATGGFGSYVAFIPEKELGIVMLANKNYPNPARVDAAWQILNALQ
How it was run: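 AmpC (5.3 nM in the dispensed reagent) in 20 mM phosphate pH 7.0 with 0.01% (detergent screen) or 0.0001% Triton X-100 was preincubated with compounds for 15 min at room temperature. Nitrocefin was then added from an 800 uM solution, and hydrolysis was followed at 480 nm.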
Cc1ccc(/C=N/NC(=O)c2cc(-c3ccncc3)nc3ccccc23)o1 was tested, and the Potency was “inactive”.
With CCCN1CC23C=CC(O2)C(C(=O)O)C3C1=O (configuration not stated) the Potency was inconclusive [inhibitor, full curve].
For COc1ccccc1CN1CC(C(=O)NCc2cccc(Cl)c2)CCC1=O (configuration not stated), the Potency was inconclusive [inhibitor, single point].
With CC(=O)Oc1ccc(C(=O)Cc2ccccn2)c(O)c1 the Potency was inconclusive [inhibitor, full curve].
For COc1ccccc1N1CCN(c2nc(C)nc3c2oc2ccccc23)CC1, the Potency was inconclusive [inhibitor, single point].
In the case of CCOC(=O)N1CCC(NC(=O)CSCc2nc(-c3cccc(OC)c3)oc2C)CC1, the Potency was inconclusive [inhibitor, full curve, poor fit].
With O=C(NC1CC1)c1sc2cc(F)ccc2c1Cl the Potency was inconclusive [inhibitor, full curve, poor fit].
CC(=O)NC1=NN(C(C)=O)C(C)(CS(=O)(=O)c2ccc(Cl)cc2)S1 (configuration not stated) was tested, and the Potency was “inactive”.
Cc1cc(CN2CCOCC2)c(O)c(C2(C)CCCCC2)c1 was tested, and the Potency was inconclusive [inhibitor, full curve, poor fit].
For Nc1nonc1C(=O)NCCNC(=O)c1cccc(Cl)c1, the Potency was “inactive”.
With O=C(O)c1ccc(NC(CSCc2ccccc2F)C(=O)O)c([N+](=O)[O-])c1 (configuration not stated) the Potency was inconclusive [inhibitor, full curve, poor fit].
With CCOc1cc(/C=C/C(=O)O)ccc1OCc1ccccc1 the Potency was “inactive”.
In the case of Oc1ccc(CCNc2c3ccccc3nc3ccccc23)cc1O, the Potency was inconclusive [inhibitor, single point].
O=C(COC(=O)c1cc(Br)ccc1O)NCC1CCCO1 (configuration not stated) was tested, and the Potency was “inactive”.
COc1ccc2c(c1)C(C)=CC(C)(C)N2C(=O)CNCc1ccc2c(c1)OCO2 was tested, and the Potency was inconclusive [inhibitor, partial curve, poor fit].
In the case of COC(=O)[C@@H]1C[C@H]1[C@@H](NP(=O)(c1ccccc1)c1ccccc1)c1ccccc1, the Potency was inconclusive [inhibitor, partial curve].
NC(=O)c1nsc(C(=O)N(c2ccc3c(c2)OCO3)C(C(=O)NCC2CCCO2)c2ccc(F)cc2)c1N (configuration not stated) was tested, and the Potency was inconclusive [inhibitor, partial curve, poor fit].
Cc1cccc(-c2nnc(SCc3ccccc3)o2)c1 was tested, and the Potency was “inactive”.
In the case of Cc1cccc(C(=O)N(Cc2ccccc2F)C2CCS(=O)(=O)C2)c1 (configuration not stated), the Potency was “inactive”.
COc1ccc(C)cc1NC(=O)Nn1cnnc1 was tested, and the Potency was inconclusive [inhibitor, full curve, poor fit].
In the case of Cc1cc(NC(=O)Cn2cnc3c(cnn3C(C)(C)C)c2=O)no1, the Potency was inconclusive [inhibitor, single point].
With OCCN(Cc1ccccc1)c1ncnc2sccc12 the Potency was inconclusive [inhibitor, full curve, poor fit].
With O=C(Nc1ccc2c(c1)OCO2)N1CCN(Cc2ccco2)CC1 the Potency was “inactive”.
In the case of Cc1cc(NC(=O)CCC(=O)N(CC(=O)NC2CCCC2)c2ccccc2)no1, the Potency was inconclusive [inhibitor, partial curve, poor fit].
In the case of COc1ccc(N2CCN(C(=O)c3cnn(-c4ccc(OC)cc4)c3C3CCN(C(=O)OC(C)(C)C)CC3)CC2)cc1, the Potency was “inactive”.
With CC(C)N(Cc1nc(-c2ccccc2)no1)C(=O)C(C)(C)C the Potency was “inactive”.
With CCOC(=O)c1c(NC(=O)CSc2nnc(CNc3ccc(C)cc3C)o2)sc(C)c1C the Potency was inconclusive [inhibitor, single point].
For O=Cc1cc2ccccc2nc1SCc1ccc(Cl)c(Cl)c1, the Potency was inconclusive [inhibitor, full curve, poor fit].
For COc1cc2c(cc1NC(=O)COC(=O)[C@@H](NC(=O)c1ccccc1)C(C)C)oc1ccccc12, the Potency was “inactive”.
CCCN1Cc2cccc(C(=O)Nc3ccccc3C(=O)OC)c2C1=O was tested, and the Potency was “inactive”.
In the case of COc1cccc(C(=O)NNC(=O)C2CC(C)=C(C)CC2C(=O)O)c1 (configuration not stated), the Potency was inconclusive [inhibitor, single point].
Cc1ccc(-n2ccc(=O)c(C(=O)Nc3ccc(S(=O)(=O)Nc4nccs4)cc3)n2)cc1 was tested, and the Potency was inconclusive [inhibitor, full curve, poor fit].
With CCN1CCN(Cc2cc(=O)oc3ccc(C)cc23)CC1 the Potency was “inactive”.
With COc1ccc(/C=C2/N=C(SCC(=O)Nc3cc(C)on3)N(c3ccccc3)C2=O)cc1 the Potency was inconclusive [inhibitor, full curve, poor fit].
With O=C(Nc1ccccc1)C1CCN(C(=O)c2ccccc2)CC1 the Potency was inconclusive [inhibitor, full curve, poor fit].
Cc1ccc(Nc2cc(C)nn2-c2nc(C)cc(=O)[nH]2)cc1 was tested, and the Potency was inconclusive [inhibitor, partial curve].
For CCOC(=O)c1ccccc1NC(=O)Cn1ccn2nc(-c3ccc(OCC)cc3)cc2c1=O, the Potency was “inactive”.
Cc1ccc(CN2CCN(C(=O)c3cccc4ccccc34)CC2)cc1 was tested, and the Potency was inconclusive [inhibitor, single point].
With O=C(Nc1ccccc1F)NC1CC1 the Potency was inconclusive [inhibitor, full curve, poor fit].
With COc1ccc2nc(Nc3sc4c(c3C(N)=O)CCCC4)sc2c1 the Potency was inconclusive [inhibitor, full curve].
In the case of COc1cc([C@@H]2[C@H]3CN(C)CC=C3C(C#N)=C(N)C2(C#N)C#N)cc2c1OCO2, the Potency was inconclusive [inhibitor, partial curve].
In the case of CCOC(=O)c1cnn(-c2ncnc3sc(C)c(C)c23)c1N, the Potency was inconclusive [inhibitor, full curve, poor fit].
In the case of COc1cccc(-n2ccnc2SCC(=O)N2CCCc3ccccc32)c1, the Potency was inconclusive [inhibitor, partial curve, poor fit].
Cc1ccc(NC(=O)COc2ccc(-c3nnco3)cc2)cc1S(=O)(=O)N1CCOCC1 was tested, and the Potency was inconclusive [inhibitor, full curve].
CC12C(=O)N(c3nccs3)C(=O)C1C1C=CC2C1 (configuration not stated) was tested, and the Potency was inconclusive [inhibitor, full curve].
Cc1ccc(C2=CSC3=NCCN23)c(C)c1 was tested, and the Potency was “inactive”.
In the case of Cc1ccc(S(=O)(=O)N2CCOCC2)cc1C(=O)NCc1ccc(F)cc1, the Potency was inconclusive [inhibitor, partial curve, poor fit].
O=C(Nc1cc2c3c(c1)CC(=O)N3CCC2)C1CCCCC1 was tested, and the Potency was inconclusive [inhibitor, partial curve, poor fit].
With CC12CN(Cc3ccccc3)CC(C)(CN(Cc3ccccc3)C1)C2=O the Potency was inconclusive [inhibitor, single point].
In the case of Brc1ccc(N=Cc2ccccn2)cc1, the Potency was inconclusive [inhibitor, full curve].
Cc1ccc(S(=O)(=O)c2nnn3c2nc(N2CCOCC2)c2sccc23)cc1C was tested, and the Potency was “inactive”.
With COc1ccccc1N1CCN(S(=O)(=O)c2c(C)sc3ncn(CC(=O)Nc4ccc(C)cc4Br)c(=O)c23)CC1 the Potency was “inactive”.
In the case of Cc1ccc([N+](=O)[O-])cc1N=Nc1c(-c2ccc([N+](=O)[O-])cc2)[nH]n(C(N)=S)c1=O, the Potency was inconclusive [inhibitor, single point].
For Cc1cc(C)cc(C(=O)NC(=S)Nc2ccc(Cc3ccncc3)cc2)c1, the Potency was inconclusive [inhibitor, partial curve].
In the case of CSc1cccc(NC(=O)CN(C)S(=O)(=O)c2ccc(C)cc2)c1, the Potency was inconclusive [inhibitor, full curve].
COc1ccc(N2CCN(C(=O)CN(c3ccccc3)S(C)(=O)=O)CC2)cc1 was tested, and the Potency was inconclusive [inhibitor, full curve, poor fit].
Cc1cc(O)c(/C=N/Nc2ccc(Cl)cc2)c(=O)o1 was tested, and the Potency was inconclusive [inhibitor, full curve].
In the case of Cc1ccc2c(c1)NC(=O)C(CC(=O)NCCCN1CCc3ccccc3C1)O2 (configuration not stated), the Potency was inconclusive [inhibitor, partial curve, poor fit].
CCn1c(C)nc2cc(-c3nnc(-c4c(-c5ccccc5)noc4C)o3)ccc21 was tested, and the Potency was inconclusive [inhibitor, partial curve].
O=C(Nc1ccc([N+](=O)[O-])cn1)c1cc(-c2cccc(Br)c2)nc2ccccc12 was tested, and the Potency was “inactive”.
With Cc1cccc(CN2CCN(c3ccc(Cl)cc3)CC2)c1 the Potency was inconclusive [inhibitor, single point].
With O=C(Nc1ccccc1Cl)C1CCN(S(=O)(=O)c2cccc3nonc23)CC1 the Potency was inconclusive [inhibitor, full curve, poor fit].
With COC(=O)c1[nH]c2ccccc2c1NC(=O)CCN1CCSCC1 the Potency was inconclusive [inhibitor, full curve, poor fit].
With O=C(CN1C(=O)NC2(CCOc3ccccc32)C1=O)Nc1ccc(Br)cc1F (configuration not stated) the Potency was inconclusive [inhibitor, full curve, poor fit].
In the case of Cc1cccc2c(CC(=O)O)noc12, the Potency was inconclusive [inhibitor, full curve, poor fit].
For O=C(NC(=S)NCc1ccco1)c1ccc(Br)cc1, the Potency was “inactive”.
COc1ccccc1NC(=O)N(CCN(C)C)Cc1cc2cc(C)ccc2[nH]c1=O was tested, and the Potency was inconclusive [inhibitor, full curve, poor fit].
